# Experimental data taken from PubChem BioAssay AID624417 (National Center for Advancing Translational Sciences (NCATS), 2012).
# Screen size: about 410,000 compounds; about 6,400 (1.6%) were called active. Inconclusive means that the source gave no clear call. Such entries were picked first, then a sample of the others. Calls come from the whole dose curve; as a rule, active = well fitted inhibition curve with a large enough effect; inconclusive = small, poorly fitted or top-dose-only effect; inactive = no such curve, though single readings can be large or run the other way. No potency is given beside an inconclusive call; the fits are too rough.
# Target: Glucagon-like peptide 1 receptor (Homo sapiens) (UniProt P43220)
# Assay: qHTS of GLP-1 Receptor Inverse Agonists (Inhibition Mode); note: nearly all actives have a fitted effect of over 55% in size
# Conditions: HEK293 GLP-1R CRE-luciferase, luminescence, 24 h, GLP-1R form is constitutively active; activity change, negative = inhibition: at 38.3 µM (top of the series) unless noted
# How it was run: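 Cells are plated, allowed 12 hours at 37 deg C, then treated with compounds for 24 hr before luciferase detection reagent is added and luminescence is read after 12 min at room temperature. The HEK293 line carries constitutively active GLP-1R with a cAMP-responsive reporter.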
# % is set by controls: 0 for no effect and ±100 for the full control effect; potency is the fitted concentration of half-maximal effect; tags give direction and shape of the fitted curve.
# Chain of UniProt P43220 (P43220 whole entry, looked up): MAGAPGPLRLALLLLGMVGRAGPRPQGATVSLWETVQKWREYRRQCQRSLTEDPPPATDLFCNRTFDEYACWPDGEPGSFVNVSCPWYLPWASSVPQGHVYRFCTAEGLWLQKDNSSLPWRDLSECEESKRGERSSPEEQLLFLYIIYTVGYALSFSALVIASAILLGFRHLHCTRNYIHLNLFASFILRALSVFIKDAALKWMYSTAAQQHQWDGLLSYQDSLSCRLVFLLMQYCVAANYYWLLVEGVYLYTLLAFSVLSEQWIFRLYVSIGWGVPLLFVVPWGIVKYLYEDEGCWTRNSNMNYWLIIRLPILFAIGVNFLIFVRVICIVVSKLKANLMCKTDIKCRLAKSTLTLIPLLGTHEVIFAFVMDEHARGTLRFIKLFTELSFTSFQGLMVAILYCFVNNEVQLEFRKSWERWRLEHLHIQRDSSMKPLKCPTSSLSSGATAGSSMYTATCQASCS
SMILES,Potency,"activity change, negative = inhibition"
O=c1c2ccccc2[nH]c(=S)n1CCCN1CCC(Cc2ccccc2)CC1,"inconclusive [inhibitor, single point]",–
O=C(NCc1ccco1)c1cccc2c(-c3ccc(F)c(F)c3)coc12,–,inactive: -23.3%
Cc1ccc(-n2c(Cc3cccn3C)nnc2SCC(=O)NC2CCCCC2)cc1,"inconclusive [inhibitor, single point]",–
COc1ccc(S(=O)(=O)c2cnc3ccc(Cl)cc3c2N2CCCCC2C)cc1 (stereo not given),"inconclusive [inhibitor, single point]",–
FC(F)(F)c1cc(Cl)c2nc(-c3ccco3)c(Cc3ccccc3C(F)(F)F)n2c1,–,inactive: -29.8%
CC1CCCCN1C(=O)c1cc2nc(-c3ccccc3)cc(-c3ccccc3)n2n1 (stereo not given),"inconclusive [inhibitor, partial curve, poor fit]",–
O=C(N/C(=C\c1ccc([N+](=O)[O-])cc1)C(=O)N1CCCCC1)c1ccccc1,"inconclusive [inhibitor, single point]",–
CCOC(=O)/C=C/C(=O)Nc1ccc(S(=O)(=O)Nc2c(C)cc(C)cc2C)cc1,"inconclusive [inhibitor, single point]",–
COc1ccc(CCN(Cc2ccccn2)C(=S)Nc2ccccc2F)cc1OC,–,inactive: 11.4%
CCCCN(C(=O)c1cc(S(=O)(=O)N2CCOCC2)ccc1N1CCOCC1)c1ccccc1,"inconclusive [inhibitor, partial curve, poor fit]",–
O=C(CSc1ccc([N+](=O)[O-])cn1)Nc1cc(C(F)(F)F)ccc1N1CCOCC1,"inconclusive [inhibitor, single point]",–
CCOC(=O)N(C)c1ccc(C(O)(C(F)(F)F)C(F)(F)F)cc1,"inconclusive [inhibitor, partial curve, poor fit]",–
CN(CC(=O)Nc1ccc(Cl)c(Cl)c1)C(=O)CN1C(=O)NC2(CCCC2)C1=O,"inconclusive [inhibitor, single point]",–
COc1ccc(OC)c(CNC(=O)C(C)n2c(C)c3cnn(-c4ccccc4)c(=O)c3c2C)c1 (stereo not given),–,inactive: 2.24%
CCOc1ccc(NC(=O)C2CCC(CNS(=O)(=O)c3ccc(Br)s3)CC2)cc1 (stereo not given),–,inactive: 1.2%
CCN(CC)CCn1c2c(c(SCC(=O)Nc3nccs3)nc1=O)CCCC2,"inconclusive [inhibitor, partial curve, poor fit]",–
Cc1cccc(NS(=O)(=O)c2ccc(S(=O)(=O)N3CCCC3)cc2)c1,"inconclusive [inhibitor, single point]",–
CCOC(=O)CCNC(=O)N1CCCC(C(=O)c2cccc(Cl)c2)C1 (stereo not given),"inconclusive [inhibitor, single point]",–
O=C(/C=N/NC(=O)c1ccc(Cl)cc1Cl)c1ccccc1,"inconclusive [inhibitor, single point]",–
Cc1cc(NC(=O)CSc2nnc(C)n2C)no1,–,inactive: -10.9%
O=C(CCc1ccccc1)NNC(=S)NC(=O)c1ccccc1,–,inactive: -0.706%
CCC(NC(=O)c1ccccc1O)c1ccccc1 (stereo not given),–,inactive: -3.01%

SMILES,Potency,"activity change, negative = inhibition"
CN(c1ccccc1C(=O)Nc1ccc2c(c1)n(C)c(=O)n2C)S(C)(=O)=O,–,inactive: 11.3%
COC(=O)[C@]1(CC(C)C)N[C@H](c2ccc(-c3cccc(Cl)c3)cc2)[C@@H]2C(=O)N(C)C(=O)[C@@H]21,"inconclusive [inhibitor, partial curve, poor fit]",–
COc1ccc([C@H]2CC(=O)C=C(/C=C/Cc3ccccc3)C2)cc1,"inconclusive [inhibitor, single point]",–
O=C1COc2ccc(S(=O)(=O)CCC(=O)N3CCN(c4cccc(C(F)(F)F)c4)CC3)cc2N1,"inconclusive [inhibitor, single point]",–
CC(C(=O)NC1CCCCC1)N1C(=O)c2cccc3cccc1c23 (stereo not given),"inconclusive [inhibitor, single point]",–
Cc1ccc(NC(=O)c2ccoc2C)cc1C,–,inactive: -6.65%
COc1cc(NC(=O)c2cccc3c2C(=O)N(C2CCCCC2)C3)cc(OC)c1OC,"inconclusive [inhibitor, single point]",–
Cc1ccc(C(C)C)c(OCC(=O)N2CCN(c3ncccn3)CC2)c1,"inconclusive [inhibitor, partial curve, poor fit]",–
Oc1ccccc1-c1nc(/C=C/c2ccccc2Cl)nn1-c1ccccc1,"inconclusive [inhibitor, single point]",–
Fc1ccc([C@@H]2CCNC[C@H]2COc2ccc3c(c2)OCO3)cc1,active: 8.91 µM,–
CCOc1ccc(-c2nc(N)ncc2-c2ccc(OC)cc2)c(O)c1,–,inactive: -19%
CCCCOc1c(Cl)cc(C(=O)N2CCN(CC(=O)N3CCCC3)CC2)cc1OCC,"inconclusive [inhibitor, partial curve, poor fit]",–
COc1cccc(/C=C2\SC(=S)N(C(Cc3ccccc3)C(=O)O)C2=O)c1 (stereo not given),"inconclusive [inhibitor, single point]",–
CC(OC(=O)CCCCCN=C1NS(=O)(=O)c2ccccc21)C(=O)Nc1cc(Cl)cc(Cl)c1 (stereo not given),"inconclusive [inhibitor, partial curve, poor fit]",–
COc1ccc(CCNc2nc(N3CCCCC3)nc(N3CCCCC3)n2)cc1OC,"inconclusive [inhibitor, partial curve, poor fit]",–
C=CCNCCCCOc1ccc(OCc2ccccc2)cc1,"inconclusive [inhibitor, partial curve, poor fit]",–
Cc1cccc(NC(=O)c2ccc(-n3cnc4cccnc43)cc2)c1C,"inconclusive [inhibitor, full curve]",–
CCOC(=O)C(C(=O)OCC)C(=O)c1cccc2ccc3ccccc3c12,"inconclusive [inhibitor, single point]",–
CCOc1ccc(OCC)c(NC(=O)C2COc3ccccc3O2)c1 (stereo not given),"inconclusive [inhibitor, single point]",–
CN(C)CCCNc1cc(C(C)(C)C)nc2c(-c3ccc(Cl)cc3)cnn12,"inconclusive [inhibitor, partial curve, poor fit]",–
CCOc1ccc(N2C(=O)C3ON(C)C(c4ccc([N+](=O)[O-])cc4)C3C2=O)cc1 (stereo not given),–,inactive: 6.91%
Cc1cccc(NC(=O)C2c3ccccc3Oc3ccccc32)n1,"inconclusive [inhibitor, partial curve, poor fit]",–

SMILES,Potency,"activity change, negative = inhibition"
COCCn1nnnc1C(c1cccc(C(F)(F)F)c1)N1CCN(Cc2ccccc2)CC1 (stereo not given),"inconclusive [inhibitor, single point]",–
OC(CSc1ccccc1Cl)CN1CCN(c2ccc(F)cc2)CC1 (stereo not given),"inconclusive [inhibitor, partial curve, poor fit]",–
O=C(/C=C/c1ccc(F)cc1)c1ccccc1Br,"inconclusive [inhibitor, partial curve, poor fit]",–
CN(Cc1ccco1)C(=O)CCc1nc2sc3c(c2c(=O)[nH]1)CCCC3,–,inactive: 6.97%
CCCCOC(=O)c1ccc(Nc2ncnc3nc[nH]c23)cc1,–,inactive: 3.4%
Cc1cc(N/N=C/c2ccc(F)cc2)nc(-n2nc(C)cc2C)n1,"inconclusive [inhibitor, full curve, poor fit]",–
CN(Cc1ccc(Cl)cc1)C(=O)COC(=O)c1ccc(-c2ccc(O)cc2)cc1,"inconclusive [inhibitor, full curve, poor fit]",–
COc1ccccc1NC(=S)N1CCN(c2nc(-c3ccccc3)cs2)CC1,"inconclusive [inhibitor, single point]",–
CCc1ccc(CN(C)C(=O)c2cccc(S(=O)(=O)Nc3ccccc3OC)c2)cc1,"inconclusive [inhibitor, partial curve, poor fit]",–
O=C(CN1CCN(S(=O)(=O)N2CCCCC2)CC1)Nc1ccc(Cl)c(Cl)c1,active: 8.91 µM,–
O=C(O)C(F)=C1c2ccccc2-c2ccccc21,"inconclusive [inhibitor, single point]",–
Cc1cc(=O)oc2cc(OC(C)C(=O)O)c(Cl)cc12 (stereo not given),–,inactive: 11.5%
COCCNc1nc(NCCOc2ccccc2Cl)c2sc(-c3ccccc3)cc2n1,"inconclusive [inhibitor, partial curve, poor fit]",–
COc1ccc(S(=O)(=O)NC2CC(C)(C)NC(C)(C)C2)cc1,–,inactive: 11.2%
CCN(CC)CCNC(=O)C1CCN(c2nn3cc(-c4ccc(F)cc4)nc3s2)CC1,"inconclusive [inhibitor, partial curve, poor fit]",–
CN(C/C=C/C#CC(C)(C)C)Cc1cccc2ccccc12,"inconclusive [inhibitor, single point]",–
C=CCOC(=O)C1=C(C)NC(SCC)=C(C#N)C1c1ccc(Cl)cc1 (stereo not given),"inconclusive [inhibitor, full curve, poor fit]",–
COc1ccc(CNC(=O)CCCN2C(=O)CSc3c2c(C)nn3-c2ccccc2)cc1,"inconclusive [inhibitor, single point]",–
N#Cc1sc2nc(C3CC3)cc(-c3ccc(Cl)cc3)c2c1N,"inconclusive [inhibitor, single point]",–
CN(C)CCCN(C(=O)c1ccc(S(=O)(=O)N2CCCCCC2)cc1)c1nc2ccc(F)cc2s1,"inconclusive [inhibitor, partial curve]",–
Cc1ccc(/C=C/C(=O)NCc2ccc(S(N)(=O)=O)cc2)o1,–,inactive: 5.03%
